# Source: the supplement of paper PMC8728848
# This is one part of the list.
# B1: AidA (Burkholderia cenocepacia) (protein)
# chain: MSRVTDVLVSFDTETILKKYPNPSKNPAAPTLIDWRYVYMVTNQDNVISGQAGGELDLKAQVGDLIRWRETSLSLGFENQVVFYKFIGNVGNDLISTPTPRVAEASIPVPNTSKPEVPTCQKVANYYWSSECLKVGRVTYHFQFQIIDRNCQSQGCFSWDPFISIHN
# How the values were obtained:
# Experiment in all cases: glycan array binding signal (z-score within array); higher = stronger binding
# Conditions in all cases: glycan notation: IUPAC condensed, linker removed
# Glc(b1-6)Glc = biological target: Glc(b1-6)Glc
# Procedure, shortened: (§1)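 Glycan array binding is given as a within-array Z-score, which can be read as non-binding when negative. The arrays, 3228 of them, came from the Consortium for Functional Glycomics database and were retained only where the protein sequence was available. Z-scores were averaged across arrays of the same protein sequence at different concentrations or buffers and across linkers.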
# GlcA(b1-3)Gal = biological target: GlcA(b1-3)Gal
# Procedure, shortened: as §1
# GlcA(b1-3)GlcNAc = biological target: GlcA(b1-3)GlcNAc
# Procedure, shortened: as §1
# GlcA(b1-6)Gal = biological target: GlcA(b1-6)Gal
# Procedure, shortened: as §1
# [1] = biological target: GlcA3S(b1-3)Gal(b1-4)GlcNAc(b1-2)Man
# Procedure, shortened: as §1
# [2] = biological target: GlcA3S(b1-3)Gal(b1-4)GlcNAc(b1-3)Gal(b1-4)Glc
# Procedure, shortened: as §1
# [3] = biological target: GlcNAc(a1-3)Gal(b1-4)GlcNAc
# Procedure, shortened: as §1
# [4] = biological target: GlcNAc(a1-4)Gal(b1-3)GlcNAc
# Procedure, shortened: as §1
# [5] = biological target: GlcNAc(a1-4)Gal(b1-4)GalNAc
# Procedure, shortened: as §1
# [6] = biological target: GlcNAc(a1-4)Gal(b1-4)GlcNAc
# Procedure, shortened: as §1
# [7] = biological target: GlcNAc(a1-4)Gal(b1-4)GlcNAc(b1-3)Gal(b1-4)Glc
# Procedure, shortened: as §1
# [8] = biological target: GlcNAc(a1-4)Gal(b1-4)GlcNAc(b1-3)Gal(b1-4)GlcNAc
# Procedure, shortened: as §1
# [9] = biological target: GlcNAc(a1-4)Gal(b1-4)GlcNAc(b1-3)Gal(b1-4)GlcNAc(b1-3)Gal(b1-4)GlcNAc
# Procedure, shortened: as §1
# [10] = biological target: GlcNAc(a1-4)Gal(b1-4)GlcNAc(b1-3)Gal(b1-4)[Fuc(a1-3)]GlcNAc(b1-3)Gal(b1-4)[Fuc(a1-3)]GlcNAc
# Procedure, shortened: as §1
# [11] = biological target: GlcNAc(a1-6)Gal(b1-4)GlcNAc
# Procedure, shortened: as §1
# [12] = biological target: GlcNAc(b1-2)Gal(b1-3)GalNAc
# Procedure, shortened: as §1
# [13] = biological target: GlcNAc(b1-2)Man(a1-3)[GlcNAc(b1-2)Man(a1-6)]Man(b1-4)GlcNAc(b1-4)GlcNAc
# Procedure, shortened: as §1
# [14] = biological target: GlcNAc(b1-2)Man(a1-3)[GlcNAc(b1-2)Man(a1-6)]Man(b1-4)GlcNAc(b1-4)[Fuc(a1-6)]GlcNAc
# Procedure, shortened: as §1
# [15] = biological target: GlcNAc(b1-2)Man(a1-3)[GlcNAc(b1-4)][GlcNAc(b1-2)Man(a1-6)]Man(b1-4)GlcNAc(b1-4)GlcNAc
# Procedure, shortened: as §1
# [16] = biological target: GlcNAc(b1-2)Man(a1-3)[GlcNAc(b1-4)][GlcNAc(b1-2)Man(a1-6)]Man(b1-4)GlcNAc(b1-4)[Fuc(a1-6)]GlcNAc
# Procedure, shortened: as §1
# [17] = biological target: GlcNAc(b1-2)[GlcNAc(b1-4)]Man(a1-3)[GlcNAc(b1-2)Man(a1-6)]Man(b1-4)GlcNAc(b1-4)GlcNAc
# Procedure, shortened: as §1
# [18] = biological target: GlcNAc(b1-2)[GlcNAc(b1-4)]Man(a1-3)[GlcNAc(b1-4)][GlcNAc(b1-2)Man(a1-6)]Man(b1-4)GlcNAc(b1-4)GlcNAc
# Procedure, shortened: as §1
# [19] = biological target: GlcNAc(b1-2)[GlcNAc(b1-4)]Man(a1-3)[GlcNAc(b1-4)][GlcNAc(b1-2)[GlcNAc(b1-6)]Man(a1-6)]Man(b1-4)GlcNAc(b1-4)GlcNAc
# Procedure, shortened: as §1
# [20] = biological target: GlcNAc(b1-2)[GlcNAc(b1-4)]Man(a1-3)[GlcNAc(b1-4)][GlcNAc(b1-2)[GlcNAc(b1-6)]Man(a1-6)]Man(b1-4)GlcNAc(b1-4)[Fuc(a1-6)]GlcNAc
# Procedure, shortened: as §1
# [21] = biological target: GlcNAc(b1-2)[GlcNAc(b1-6)]Man(a1-6)[GlcNAc(b1-2)Man(a1-3)]Man(b1-4)GlcNAc(b1-4)GlcNAc
# Procedure, shortened: as §1
# [22] = biological target: GlcNAc(b1-2)[GlcNAc(b1-6)]Man(a1-6)[GlcNAc(b1-2)Man(a1-3)]Man(b1-4)GlcNAc(b1-4)[Fuc(a1-6)]GlcNAc
# Procedure, shortened: as §1
# [23] = biological target: GlcNAc(b1-2)[GlcNAc(b1-6)]Man(a1-6)[GlcNAc(b1-4)][GlcNAc(b1-2)Man(a1-3)]Man(b1-4)GlcNAc(b1-4)GlcNAc
# Procedure, shortened: as §1
# GlcNAc(b1-3)Fuc = biological target: GlcNAc(b1-3)Fuc
# Procedure, shortened: as §1
# GlcNAc(b1-3)Gal = biological target: GlcNAc(b1-3)Gal
# Procedure, shortened: as §1
# [24] = biological target: GlcNAc(b1-3)Gal(b1-3)GalNAc
# Procedure, shortened: as §1
# GlcNAc(b1-3)Gal(b1-4)Glc = biological target: GlcNAc(b1-3)Gal(b1-4)Glc
# Procedure, shortened: as §1
# [25] = biological target: GlcNAc(b1-3)Gal(b1-4)GlcNAc
# Procedure, shortened: as §1
# [26] = biological target: GlcNAc(b1-3)Gal(b1-4)GlcNAc(b1-2)Man(a1-3)[GlcNAc(b1-3)Gal(b1-4)GlcNAc(b1-2)Man(a1-6)]Man(b1-4)GlcNAc(b1-4)GlcNAc
# Procedure, shortened: as §1
# [27] = biological target: GlcNAc(b1-3)Gal(b1-4)GlcNAc(b1-2)Man(a1-3)[GlcNAc(b1-3)Gal(b1-4)GlcNAc(b1-2)Man(a1-6)]Man(b1-4)GlcNAc(b1-4)[Fuc(a1-6)]GlcNAc
# Procedure, shortened: as §1
# [28] = biological target: GlcNAc(b1-3)Gal(b1-4)GlcNAc(b1-2)[GlcNAc(b1-3)Gal(b1-4)GlcNAc(b1-6)]Man(a1-6)[GlcNAc(b1-3)Gal(b1-4)GlcNAc(b1-2)Man(a1-3)]Man(b1-4)GlcNAc(b1-4)GlcNAc
# Procedure, shortened: as §1
# [29] = biological target: GlcNAc(b1-3)Gal(b1-4)GlcNAc(b1-3)Gal(b1-4)GlcNAc
# Procedure, shortened: as §1
# [30] = biological target: GlcNAc(b1-3)Gal(b1-4)GlcNAc(b1-3)Gal(b1-4)GlcNAc(b1-2)Man(a1-3)[GlcNAc(b1-3)Gal(b1-4)GlcNAc(b1-3)Gal(b1-4)GlcNAc(b1-2)Man(a1-6)]Man(b1-4)GlcNAc(b1-4)GlcNAc
# Procedure, shortened: as §1
# [31] = biological target: GlcNAc(b1-3)Gal(b1-4)GlcNAc(b1-3)Gal(b1-4)GlcNAc(b1-2)Man(a1-3)[GlcNAc(b1-3)Gal(b1-4)GlcNAc(b1-3)Gal(b1-4)GlcNAc(b1-2)Man(a1-6)]Man(b1-4)GlcNAc(b1-4)[Fuc(a1-6)]GlcNAc
# Procedure, shortened: as §1
# [32] = biological target: GlcNAc(b1-3)Gal(b1-4)GlcNAc(b1-3)Gal(b1-4)GlcNAc(b1-2)[GlcNAc(b1-3)Gal(b1-4)GlcNAc(b1-3)Gal(b1-4)GlcNAc(b1-6)]Man(a1-6)[GlcNAc(b1-3)Gal(b1-4)GlcNAc(b1-3)Gal(b1-4)GlcNAc(b1-2)Man(a1-3)]Man(b1-4)GlcNAc(b1-4)[Fuc(a1-6)]GlcNAc
# Procedure, shortened: as §1
# [33] = biological target: GlcNAc(b1-3)Gal(b1-4)GlcNAc(b1-3)Gal(b1-4)GlcNAc(b1-3)Gal(b1-4)GlcNAc(b1-2)Man(a1-3)[GlcNAc(b1-3)Gal(b1-4)GlcNAc(b1-3)Gal(b1-4)GlcNAc(b1-3)Gal(b1-4)GlcNAc(b1-2)Man(a1-6)]Man(b1-4)GlcNAc(b1-4)GlcNAc
# Procedure, shortened: as §1
# [34] = biological target: GlcNAc(b1-3)Gal(b1-4)GlcNAc(b1-3)Gal(b1-4)GlcNAc(b1-3)Gal(b1-4)GlcNAc(b1-2)Man(a1-3)[GlcNAc(b1-3)Gal(b1-4)GlcNAc(b1-3)Gal(b1-4)GlcNAc(b1-3)Gal(b1-4)GlcNAc(b1-2)Man(a1-6)]Man(b1-4)GlcNAc(b1-4)[Fuc(a1-6)]GlcNAc
# Procedure, shortened: as §1
# [35] = biological target: GlcNAc(b1-3)Gal(b1-4)GlcNAc(b1-3)Gal(b1-4)GlcNAc(b1-3)Gal(b1-4)GlcNAc(b1-2)[GlcNAc(b1-3)Gal(b1-4)GlcNAc(b1-3)Gal(b1-4)GlcNAc(b1-3)Gal(b1-4)GlcNAc(b1-6)]Man(a1-6)[GlcNAc(b1-3)Gal(b1-4)GlcNAc(b1-3)Gal(b1-4)GlcNAc(b1-3)Gal(b1-4)GlcNAc(b1-2)Man(a1-3)]Man(b1-4)GlcNAc(b1-4)[Fuc(a1-6)]GlcNAc
# Procedure, shortened: as §1
# [36] = biological target: GlcNAc(b1-3)Gal(b1-4)GlcNAc(b1-3)Gal(b1-4)GlcNAc(b1-3)Gal(b1-4)GlcNAc(b1-3)Gal(b1-4)GlcNAc(b1-2)Man(a1-3)[GlcNAc(b1-3)Gal(b1-4)GlcNAc(b1-3)Gal(b1-4)GlcNAc(b1-3)Gal(b1-4)GlcNAc(b1-3)Gal(b1-4)GlcNAc(b1-2)Man(a1-6)]Man(b1-4)GlcNAc(b1-4)GlcNAc
# Procedure, shortened: as §1
# [37] = biological target: GlcNAc(b1-3)Gal(b1-4)GlcNAc(b1-3)Gal(b1-4)GlcNAc(b1-3)Gal(b1-4)GlcNAc(b1-3)Gal(b1-4)GlcNAc(b1-2)Man(a1-3)[GlcNAc(b1-3)Gal(b1-4)GlcNAc(b1-3)Gal(b1-4)GlcNAc(b1-3)Gal(b1-4)GlcNAc(b1-3)Gal(b1-4)GlcNAc(b1-2)Man(a1-6)]Man(b1-4)GlcNAc(b1-4)[Fuc(a1-6)]GlcNAc
# Procedure, shortened: as §1
# [38] = biological target: GlcNAc(b1-3)Gal(b1-4)GlcNAc(b1-3)Gal(b1-4)GlcNAc(b1-3)Gal(b1-4)GlcNAc(b1-3)Gal(b1-4)GlcNAc(b1-2)[GlcNAc(b1-3)Gal(b1-4)GlcNAc(b1-3)Gal(b1-4)GlcNAc(b1-3)Gal(b1-4)GlcNAc(b1-3)Gal(b1-4)GlcNAc(b1-6)]Man(a1-6)[GlcNAc(b1-3)Gal(b1-4)GlcNAc(b1-3)Gal(b1-4)GlcNAc(b1-3)Gal(b1-4)GlcNAc(b1-3)Gal(b1-4)GlcNAc(b1-2)Man(a1-3)]Man(b1-4)GlcNAc(b1-4)[Fuc(a1-6)]GlcNAc
# Procedure, shortened: as §1
binder,measurement,setting,value
B1,glycan array binding signal (z-score),Glc(b1-6)Glc,-0.459
same,glycan array binding signal (z-score),GlcA(b1-3)Gal,-0.352
same,glycan array binding signal (z-score),GlcA(b1-3)GlcNAc,0.53
same,glycan array binding signal (z-score),GlcA(b1-6)Gal,0.13
same,glycan array binding signal (z-score),[1],-0.041
same,glycan array binding signal (z-score),[2],0.391
same,glycan array binding signal (z-score),[3],0.02
same,glycan array binding signal (z-score),[4],-0.239
same,glycan array binding signal (z-score),[5],-0.963
same,glycan array binding signal (z-score),[6],-0.623
same,glycan array binding signal (z-score),[7],-0.604
same,glycan array binding signal (z-score),[8],0.177
same,glycan array binding signal (z-score),[9],-1.19
same,glycan array binding signal (z-score),[10],0.901
same,glycan array binding signal (z-score),[11],-0.235
same,glycan array binding signal (z-score),[12],-0.437
same,glycan array binding signal (z-score),[13],-0.472
same,glycan array binding signal (z-score),[14],-0.269
same,glycan array binding signal (z-score),[15],-0.187
same,glycan array binding signal (z-score),[16],-0.375
same,glycan array binding signal (z-score),[17],-0.37
same,glycan array binding signal (z-score),[18],-0.343
same,glycan array binding signal (z-score),[19],0.147
same,glycan array binding signal (z-score),[20],-0.624
same,glycan array binding signal (z-score),[21],-0.482
same,glycan array binding signal (z-score),[22],0.418
same,glycan array binding signal (z-score),[23],0.158
same,glycan array binding signal (z-score),GlcNAc(b1-3)Fuc,-0.527
same,glycan array binding signal (z-score),GlcNAc(b1-3)Gal,0.941
same,glycan array binding signal (z-score),[24],-0.191
same,glycan array binding signal (z-score),GlcNAc(b1-3)Gal(b1-4)Glc,-0.186
same,glycan array binding signal (z-score),[25],-0.208
same,glycan array binding signal (z-score),[26],-0.702
same,glycan array binding signal (z-score),[27],-0.074
same,glycan array binding signal (z-score),[28],2.61
same,glycan array binding signal (z-score),[29],0.86
same,glycan array binding signal (z-score),[30],0.354
same,glycan array binding signal (z-score),[31],0.683
same,glycan array binding signal (z-score),[32],0.88
same,glycan array binding signal (z-score),[33],0.41
same,glycan array binding signal (z-score),[34],0.165
same,glycan array binding signal (z-score),[35],0.071
same,glycan array binding signal (z-score),[36],0.816
same,glycan array binding signal (z-score),[37],-0.735
same,glycan array binding signal (z-score),[38],0.207
